Here are results for 34 compounds from PubChem BioAssay (NCI).

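Following 48 hours of exposure in 96-well plates, responses at five concentrations were used to interpolate endpoints linearly. GI50 = concentration required for 50% inhibition of growth. TGI: concentration producing complete growth inhibition.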

The test system of the assay is NCI-H322M lung. Nature of the assay: NCI anticancer screen, dose series, 48 h.
`COC(=O)N/N=C(\c1nc2ccc(Cl)cc2[nH]c1=O)C(O)c1ccc([N+](=O)[O-])cc1` (configuration not stated) yielded a TGI of more than 100 µM.

Regarding `CC(=O)OC1C(C)OC(OC2C[C@](O)(C(C)=O)Cc3c(O)c4c(c(O)c32)C(=O)c2ccccc2C4=O)C(F)C1OC(C)=O` (some centres not stated), the TGI came to 13.2 µM.

Regarding `Cc1ccc(C)c(C(=O)CC2OC(O)C(Cl)C2Cl)c1` (configuration not stated), the TGI was more than 100 µM.

For the compound `CC(C)=NO.CC(C)=NO.CC(C)=NO.CC(C)=NO.[Ti]`, the GI50 was more than 100 µM and the TGI is more than 100 µM.

As to `COc1cc(-c2nn(-c3cccc(NC(=O)c4cccc(C(F)(F)F)c4)c3)cc2-c2ccncc2)ccc1Cl`, the GI50 is 10.8 µM and the TGI was more than 50 µM.

On to `O=C(NCc1cccnc1)c1ccc([N+](=O)[O-])o1`, for which the GI50 is 2.97 µM and the TGI turned out to be 7.62 µM.

With `COc1ccc(-c2cc(-c3ccc(Nc4ccnc5cc(C(F)(F)F)ccc45)cc3)nc(N)c2C#N)c2ccccc12`, the TGI was more than 100 µM.

The compound `CCOC(=O)C1=C(O)c2c(OC)ccc(OC)c2C(=O)C1=O` came in with a TGI of more than 100 µM.

In the case of `CCCCCCCCCCCCCCCC(=O)OCC(COP(=O)(O)OCCNC(=O)CCSSc1ccccn1)OC(=O)CCCCCCCCCCCCCCC` (configuration not stated), the TGI was more than 100 µM.

As for `CCOC(=O)C1C(=O)C(=O)N2CCc3c([nH]c4ccccc34)C12` (configuration not stated), the TGI was more than 100 µM.

In turn, `O=C1Cc2c(-c3ccccc3)cc(-c3ccc(Cl)cc3)nc2-c2ccccc2N1` had a TGI of 24.6 µM.

As to `CO/C(N)=C(\C#N)N=Cc1cccs1`, the TGI was more than 100 µM.

Regarding `O=C(Nc1nc2ccc([N+](=O)[O-])cc2s1)c1cc([N+](=O)[O-])ccc1Cl`, the TGI came out at 10.2 µM.

As to `CN(C)C(=O)c1cc2cnc(Nc3ccc(N4CCNCC4)cn3)nc2n1C1CCCC1`, the GI50 was 17.8 µM and the TGI is more than 100 µM.

The compound `Nc1cc(O)c2cc(N=Nc3ccc(N=Nc4ccc(N=Nc5ccc6cc(S(=O)(=O)O)cc(S(=O)(=O)O)c6c5)c5ccccc45)c4cc(S(=O)(=O)O)ccc34)c(S(=O)(=O)O)cc2c1` registered a TGI of more than 100 µM.

Take `CC(C)C12CCC3(CCC4C(C)(C(=O)O)CCCC4(C)C3C1)C(CN)C2` (configuration not stated): the TGI was more than 100 µM.

`O=[N+]([O-])c1cccc2c1[nH]c1c(-c3ccccc3)nccc12` had a TGI of 6.99 µM.

In turn, `CCOC(=O)/C(=C/c1ccc[nH]1)P(=O)(OCC)OCC` gave a TGI of more than 100 µM.

Consider `O=C1COc2c(CCNCCN(C(=O)CCNCCc3ccc(Cl)c(Cl)c3)C3CCCCC3)ccc(O)c2N1`, for which the GI50 was 15.6 µM and the TGI worked out at 29.8 µM.

The compound `COc1ccc(Sc2ccccc2[N+](=O)[O-])cc1` showed a TGI of more than 100 µM.

Consider `O=C1COc2cc3c(cc2N1)SCC(=O)N3`, for which the TGI was more than 100 µM.

`CC(=O)Nc1ccc(C(=O)NN2C(=O)CSC2c2ccccc2)cc1` (configuration not stated) had a TGI of more than 100 µM.

With `Nc1ccc2ncc(Nc3ccc(Cl)c(Cl)c3)nc2c1`, the TGI was more than 100 µM.

`CCCCC(C)(C/C=C/[C@@H]1[C@@H](C(O)CCCCCC(=O)OC)C(=O)C[C@H]1O[Si](C)(C)C(C)(C)C)O[Si](C)(C)C` (some centres not stated) had a TGI of more than 100 µM.

Compound `O=C(Nc1ccccc1)Oc1ccccc1C1CCCCC1` registered a TGI of 88.9 µM.

As for `CCNc1nc(-c2ccc(Cl)c(OC)c2)c(-c2ccnc(NCCNS(=O)(=O)c3ccc(Cl)cc3)n2)s1`, the GI50 was 5.23 µM and the TGI was more than 100 µM.

In turn, `CCOC(=O)c1ccc(-c2cccs2)[nH]1` came in with a TGI of more than 100 µM.

`CN1OC(CO)CC12C1CC3CC(C1)CC2C3` (configuration not stated) had a TGI of more than 100 µM.

With `O=C(Nc1cccc(C(F)(F)F)c1)Nc1ccc(OCc2nnc(-c3ccccc3)o2)c(F)c1`, the GI50 was 9.1 µM and the TGI was determined as 57.4 µM.

Compound `Cc1c(Cl)cc(C(C)(C)C)c(O)c1Cc1c(C)c(Cl)cc(C(C)(C)C)c1O` gave a TGI of 7.51 µM.

`CCOC(=O)c1sc2nc(SC)nc3c2c1NCN3c1ccccc1Cl` yielded a TGI of more than 100 µM.

`CC(C)c1nc(Cl)c(Cl)c(Cl)n1` displayed a TGI of 22.6 µM.

Turning to `Cc1nnc(N)s/c1=N/O`, the TGI was more than 100 µM.

Take `Cc1cccc(Cc2cnc(NC(=O)CCCOc3ccc(Cl)cc3)s2)c1`: the GI50 is 7.5 µM and the TGI was more than 100 µM.
